Results taken from the supplement of paper PMC8728848.
Some of the results follow.

What was measured:
Assay in all cases: glycan array binding signal (z-score within array); higher = stronger binding
Conditions in all cases: glycan notation: IUPAC condensed, linker removed
Fuc(a1-2)Gal = target: Fuc(a1-2)Gal
Method in brief: (§1)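 The binding signal is a Z-score computed within each array and averaged over linkers. Arrays of the same protein sequence at different concentrations or buffers were also averaged together. Data originate from 3228 arrays in the Consortium for Functional Glycomics database, kept only where the protein sequence was available.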

Fuc(a1-2)Gal(b1-3)GalNAc = target: Fuc(a1-2)Gal(b1-3)GalNAc
Method in brief: as §1

[1] = target: Fuc(a1-2)Gal(b1-3)GalNAc(b1-3)Gal
Method in brief: as §1

[2] = target: Fuc(a1-2)Gal(b1-3)GalNAc(b1-3)Gal(a1-4)Gal(b1-4)Glc
Method in brief: as §1

[3] = target: Fuc(a1-2)Gal(b1-3)GalNAc(b1-4)[Neu5Ac(a2-3)]Gal(b1-4)Glc
Method in brief: as §1

Fuc(a1-2)Gal(b1-3)GlcNAc = target: Fuc(a1-2)Gal(b1-3)GlcNAc
Method in brief: as §1

[4] = target: Fuc(a1-2)Gal(b1-3)[Fuc(a1-4)]GlcNAc
Method in brief: as §1

Fuc(a1-2)Gal(b1-4)Glc = target: Fuc(a1-2)Gal(b1-4)Glc
Method in brief: as §1

Fuc(a1-2)Gal(b1-4)GlcNAc = target: Fuc(a1-2)Gal(b1-4)GlcNAc
Method in brief: as §1

[5] = target: Fuc(a1-2)Gal(b1-4)GlcNAc(b1-3)Gal(b1-4)GlcNAc
Method in brief: as §1

[6] = target: Fuc(a1-2)Gal(b1-4)GlcNAc(b1-3)Gal(b1-4)GlcNAc(b1-3)Gal(b1-4)GlcNAc
Method in brief: as §1

[7] = target: Fuc(a1-2)Gal(b1-4)[Fuc(a1-3)]GlcNAc
Method in brief: as §1

Fuc(a1-2)GlcNAc = target: Fuc(a1-2)GlcNAc
Method in brief: as §1

Fuc(a1-2)[Gal(a1-3)]Gal = target: Fuc(a1-2)[Gal(a1-3)]Gal
Method in brief: as §1

[8] = target: Fuc(a1-2)[Gal(a1-3)]Gal(b1-4)GlcNAc
Method in brief: as §1

[9] = target: Fuc(a1-2)[Gal(a1-4)]Gal(b1-4)GlcNAc
Method in brief: as §1

[10] = target: Fuc(a1-2)[GalNAc(a1-3)]Gal
Method in brief: as §1

[11] = target: Fuc(a1-2)[GalNAc(a1-3)]Gal(b1-4)GlcNAc
Method in brief: as §1

[12] = target: Fuc(a1-2)[GalNAc(a1-4)]Gal(b1-4)GlcNAc
Method in brief: as §1

[13] = target: Fuc(a1-2)[GalNAc(b1-3)]Gal
Method in brief: as §1

Fuc(a1-3)GlcNAc = target: Fuc(a1-3)GlcNAc
Method in brief: as §1

[14] = target: Fuc(a1-3)[Gal(b1-4)]GlcNAc
Method in brief: as §1

[15] = target: Fuc(a1-3)[Gal(b1-4)]GlcNAc(b1-3)Gal(b1-4)[Fuc(a1-3)]GlcNAc
Method in brief: as §1

[16] = target: Fuc(a1-3)[Gal(b1-4)]GlcNAc(b1-3)Gal(b1-4)[Fuc(a1-3)]GlcNAc(b1-3)Gal(b1-4)[Fuc(a1-3)]GlcNAc
Method in brief: as §1

[17] = target: Fuc(a1-3)[Gal3S(b1-4)]GlcNAc
Method in brief: as §1

Fuc(b1-3)GlcNAc = target: Fuc(b1-3)GlcNAc
Method in brief: as §1

Gal(a1-2)Gal = target: Gal(a1-2)Gal
Method in brief: as §1

Gal(a1-3)Gal = target: Gal(a1-3)Gal
Method in brief: as §1

Gal(a1-3)Gal(b1-4)Glc = target: Gal(a1-3)Gal(b1-4)Glc
Method in brief: as §1

Gal(a1-3)Gal(b1-4)GlcNAc = target: Gal(a1-3)Gal(b1-4)GlcNAc
Method in brief: as §1

B1: TES70 (Toxocara canis), Q9XYV5 (protein)
chain: MISVVLVAIALQISGSYAGACNSINDCGLFETCVNNMCVPDNMGCPMPCQAGQVCVPPNCVAAPAPQPVTTTTAAATTTTSARGRCNANAQCGAFEVCVNGMCQPNNAGCNPPCAANQVCVAPNCVPAPIPPPAQSTTTAPATTRAPPSCPPSWSPFSGHCYYVAVGSFLFNQASDWCTQTNSRPVWFDQSNVGTFGAELYFINVLAASRGVQTYWLGLNRQFGQWVWTNGSPLIFSNWRGSEPDGCCGGNVTCALVNYANPFGQWDDAGCGNIWRNPQGFICKKPLA
- glycan array binding signal (z-score) (Fuc(a1-2)Gal): -0.112
- glycan array binding signal (z-score) (Fuc(a1-2)Gal(b1-3)GalNAc): -0.121
- glycan array binding signal (z-score) [1]: -0.183
- glycan array binding signal (z-score) [2]: -0.134
- glycan array binding signal (z-score) [3]: -0.092
- glycan array binding signal (z-score) (Fuc(a1-2)Gal(b1-3)GlcNAc): -0.112
- glycan array binding signal (z-score) [4]: -0.183
- glycan array binding signal (z-score) (Fuc(a1-2)Gal(b1-4)Glc): -0.173
- glycan array binding signal (z-score) (Fuc(a1-2)Gal(b1-4)GlcNAc): -0.11
- glycan array binding signal (z-score) [5]: -0.095
- glycan array binding signal (z-score) [6]: -0.144
- glycan array binding signal (z-score) [7]: -0.127
- glycan array binding signal (z-score) (Fuc(a1-2)GlcNAc): -0.185
- glycan array binding signal (z-score) (Fuc(a1-2)[Gal(a1-3)]Gal): -0.052
- glycan array binding signal (z-score) [8]: -0.123
- glycan array binding signal (z-score) [9]: -0.13
- glycan array binding signal (z-score) [10]: -0.12
- glycan array binding signal (z-score) [11]: -0.165
- glycan array binding signal (z-score) [12]: -0.068
- glycan array binding signal (z-score) [13]: -0.176
- glycan array binding signal (z-score) (Fuc(a1-3)GlcNAc): -0.169
- glycan array binding signal (z-score) [14]: -0.156
- glycan array binding signal (z-score) [15]: -0.109
- glycan array binding signal (z-score) [16]: 0.054
- glycan array binding signal (z-score) [17]: -0.132
- glycan array binding signal (z-score) (Fuc(b1-3)GlcNAc): -0.15
- glycan array binding signal (z-score) (Gal(a1-2)Gal): -0.125
- glycan array binding signal (z-score) (Gal(a1-3)Gal): -0.102
- glycan array binding signal (z-score) (Gal(a1-3)Gal(b1-4)Glc): -0.114
- glycan array binding signal (z-score) (Gal(a1-3)Gal(b1-4)GlcNAc): -0.108
